# Test results taken from paper PMC4336329 (PLoS ONE, 2015).
# About 2,200 (0.71%) of roughly 310,000 compounds showed an effect of 50% or more. The effect is printed as a negative number. The list shows a part of the results.
# Biological target: human ether-à-go-go-related gene (hERG) potassium channel (human, UniProt Q12809)
# Assay: primary screen, population patch clamp on CHO cells stably expressing hERG
# Chain of human ether-à-go-go-related gene (hERG) potassium channel (Q12809 whole entry, looked up): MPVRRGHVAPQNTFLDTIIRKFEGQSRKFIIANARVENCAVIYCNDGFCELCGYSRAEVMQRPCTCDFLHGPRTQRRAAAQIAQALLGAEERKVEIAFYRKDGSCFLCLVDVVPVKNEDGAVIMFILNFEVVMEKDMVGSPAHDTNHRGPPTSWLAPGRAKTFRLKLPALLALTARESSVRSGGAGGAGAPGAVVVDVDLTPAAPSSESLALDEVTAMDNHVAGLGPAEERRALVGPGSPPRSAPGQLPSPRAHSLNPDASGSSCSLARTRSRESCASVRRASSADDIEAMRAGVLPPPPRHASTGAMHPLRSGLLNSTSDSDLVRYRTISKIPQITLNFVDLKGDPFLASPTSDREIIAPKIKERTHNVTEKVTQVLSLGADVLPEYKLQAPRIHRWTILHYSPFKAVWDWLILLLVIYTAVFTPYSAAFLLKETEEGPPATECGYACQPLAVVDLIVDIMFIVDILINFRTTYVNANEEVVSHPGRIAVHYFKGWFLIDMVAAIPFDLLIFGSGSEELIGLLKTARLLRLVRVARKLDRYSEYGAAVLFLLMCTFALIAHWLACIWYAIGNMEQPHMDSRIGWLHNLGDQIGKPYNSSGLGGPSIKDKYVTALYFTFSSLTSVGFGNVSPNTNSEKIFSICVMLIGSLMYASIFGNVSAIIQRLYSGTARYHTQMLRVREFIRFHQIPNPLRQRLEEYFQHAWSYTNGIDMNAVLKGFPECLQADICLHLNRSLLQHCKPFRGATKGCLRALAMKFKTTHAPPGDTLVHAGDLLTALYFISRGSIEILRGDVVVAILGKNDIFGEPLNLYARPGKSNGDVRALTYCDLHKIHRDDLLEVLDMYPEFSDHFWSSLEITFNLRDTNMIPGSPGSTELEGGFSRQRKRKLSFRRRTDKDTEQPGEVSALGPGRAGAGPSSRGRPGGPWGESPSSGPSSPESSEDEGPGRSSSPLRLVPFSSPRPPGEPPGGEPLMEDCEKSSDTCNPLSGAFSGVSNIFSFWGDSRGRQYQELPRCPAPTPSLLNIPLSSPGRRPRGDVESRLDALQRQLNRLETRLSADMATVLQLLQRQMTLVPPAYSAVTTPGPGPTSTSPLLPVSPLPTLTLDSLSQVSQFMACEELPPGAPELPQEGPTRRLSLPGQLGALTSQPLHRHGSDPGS
row,Compound,"hERG current change (%, negative = inhibition) at 1uM"
1,COCCC(=O)N(Cc1ccc2c(c1)OCO2)C(C(=O)NC1CCCCC1)c1ccncc1 (stereo not drawn),0.827%
2,CC(=O)NCCC(=O)Nc1cc(S(=O)(=O)N2CCOCC2)ccc1N1CCCC1,17.3%
3,CCCSC1=C(C#N)C2(CCCCC2)C(C#N)=C(N)N1,6.83%
4,CN(C)S(=O)(=O)N1CCc2ccc(NC(=O)c3ccc(C(F)(F)F)cc3)cc2C1,26.7%
5,Cc1ccc(-n2nnc3c(=O)n(Cc4cccc(C)c4)cnc32)cc1,14.2%
6,O=C(N/N=C\C=C\c1ccc([N+](=O)[O-])o1)c1cccs1,8.01%
7,N#Cc1c(N2CCCCC2)nc(N2CCCCC2)c2c1CCN(Cc1ccccc1)C2,7.31%
8,CCCNC(=O)N1[C@H]2CC[C@@H]1C(C(=O)OC)=C(c1c(C)noc1C)C2,11.8%
9,CCN(C(=O)c1cc(Cl)ccc1OC)c1ccccc1,16.9%
10,COC(CNC(=O)[C@H](Cc1ccccc1)N1Cc2ccccc2C1=O)OC,11.7%
11,CC(=O)c1c(C(C)=O)c(C)n(NC(=O)c2ccccc2Cl)c1C,15.2%
12,N#CC1=C(S)N(c2ccccc2)C(c2ccc(-c3ccccc3Cl)o2)NC1=O (stereo not drawn),9.7%
13,CCN(Cc1ccncc1)C(=O)c1cc(COc2c(F)cccc2F)on1,-8.09%
14,O=C(Nc1cc(N2CCOCC2)ncn1)c1ccc(F)cc1,-4.41%
15,O=C(c1ccc(N2CCOCC2)nc1)N1CCOCC1,5.93%
16,CCN(CC)C(=O)CSc1nc(O)cc(=O)n1CC,5.12%
17,CCN(CC)C(=O)C1CCCN(C(=O)Nc2ccccc2)C1 (stereo not drawn),-2.22%
18,CCOc1cc(Br)ccc1S(=O)(=O)N1CCC(C(N)=O)CC1,-2.43%
19,CCC(C)NC(=O)c1ccc(-n2c(=S)[nH]c3ccccc3c2=O)cc1 (stereo not drawn),15.5%

row,Compound,"hERG current change (%, negative = inhibition) at 1uM"
1,O=C(C1CCN(S(=O)(=O)c2ccc(Cl)cc2)CC1)N1CCC1,13.2%
2,O=C(c1cn(-c2ccccc2)nc1-c1ccc(Cl)s1)N1CCOCC1,1.21%
3,CN1C(=O)/C(=C/c2ccccc2F)Sc2ccc(C(=O)NCC3CCCO3)cc21 (stereo not drawn),3.48%
4,CCN1CCN(Cc2ccc(NC(=O)c3ccc(C)c(NC(=O)c4ccnnc4)c3)cc2C(F)(F)F)CC1,13.3%
5,O=C(Nc1ccccc1)Nc1nnc(CSCc2ccccc2Cl)s1,5.66%
6,O=C(Nc1nnc(-c2ccccn2)o1)c1ccc(Br)cc1,13%
7,Cc1nnc(NC(=O)CSC2CCCCC2)s1,9.28%
8,COCc1c(C(=O)OC)nnn1-c1ccccc1,4.9%
9,CCC(=O)c1cc(F)ccc1OCC(=O)Nc1ccc2c(c1)OCCO2,2.38%
10,Cn1c(=O)c2[nH]c(=O)cnc2n(C)c1=S,10.1%
11,Cc1ccccc1Oc1ncnc2oc(-c3ccccc3)cc12,3.42%
12,CCC1=NN(C(=O)c2ccc(Cl)cc2)C(O)(c2ccc(C)cc2)C1 (stereo not drawn),9.89%
13,CC1(C)CC(=O)C=C(C(=O)N2CCCC(C(=O)c3cccc(Cl)c3)C2)O1 (stereo not drawn),-0.27%
14,O=C(CSC1c2ccccc2-c2ccccc21)N/N=C/c1ccccc1C(=O)O,7.3%
15,Cc1oc(-c2ccccc2)cc1C(=O)NC1CCN(Cc2ccccc2)CC1,15.3%
16,CC1CCC(C(=O)NC(C(=O)Nc2ccccn2)C(C)C)CC1 (stereo not drawn),12.8%
17,Cl.Nc1c2c(nc3ccccc13)CCCC2.O,-11.8%
18,CN(CC(=O)Nc1ccc(F)cc1)C(=O)c1ccccc1OCc1ccc(F)cc1,-2.45%
19,C=CCc1ccc(OC)cc1,11.4%

row,Compound,"hERG current change (%, negative = inhibition) at 1uM"
1,CC(C)(C)CNC(=O)[C@]1(C)CCC[C@@]2(C)C3CC[C@@]4(C)C[C@]3(CCC21)CC4=O (stereo partly drawn),10.2%
2,CC(=O)c1ccc(OCc2cc(C(=O)NCCn3nc(C)cc3C)no2)cc1,11.4%
3,COc1ccc(-c2nc3c(s2)CN(S(C)(=O)=O)CC3)cc1OC,11.7%
4,COc1ccc(-c2oc(NC(C)=O)c(C#N)c2-c2ccc(OC)cc2)cc1,-1.68%
5,COc1ccc(/C=N/N2C(=O)c3ccccc3C2=O)cc1,7.26%
6,O=C(Nn1c(Cc2cccs2)nc2ccccc2c1=O)c1ccc(F)c(F)c1,11%
7,Cc1ccc(N2CCN(C(=O)c3nn(C)c4c3CS(=O)(=O)c3ccccc3-4)CC2C)cc1 (stereo not drawn),-25.4%
8,CN(C)c1nc2n(c(=O)n1)C(C#N)CS2 (stereo not drawn),9.32%
9,Cc1ccc(-c2cnc3ccccc3n2)cc1C,8.14%
10,C=CCc1ccc(OCCCCN2CC(C)OC(C)C2)c(OC)c1.O=C(O)C(=O)O (stereo not drawn),7.55%
11,O=C(Cc1ccccc1)NC(=S)Nc1cc(C(F)(F)F)ccc1Cl,14.8%
12,COc1ccc(OCC(O)Cn2c(=N)n(Cc3ccccc3)c3ccccc32)cc1.Cl (stereo not drawn),-76.6%
13,CCCCN(CC)Cc1c(C)[nH]c2c(ccc3ccccc32)c1=O,-49.6%
14,COC(=O)NCC(c1ccco1)N1CCN(c2ccc(F)cc2)CC1 (stereo not drawn),9.2%
15,CC1(c2ccccc2)NC(=O)N(N)C1=O (stereo not drawn),13.7%
16,COc1ccc(Cc2nnc(SCC(=O)Nc3cc(Cl)ccc3C)[nH]c2=O)cc1,5.69%
17,O=C(COc1cc2oc(=O)c3c(c2cc1Cl)CCC3)NCC(O)c1ccccc1 (stereo not drawn),21.8%
18,Cn1c(=O)c2c(nc(N3CCN(C(=O)c4ccco4)CC3)n2CCSc2ncccn2)n(C)c1=O,-17.4%
19,Cc1cc(NC(=O)C(C)SCC(=O)Nc2cc(C(F)(F)F)ccc2N2CCCCC2)no1 (stereo not drawn),7.23%
